According to PubChem BioAssay AID1345083 (National Center for Advancing Translational Sciences (NCATS), 2018):
About 6,200 (6.6%) of roughly 94,000 compounds were called active. Inconclusive means that the source gave no clear call. Such entries were picked first, then a sample of the others. The call rests on the fitted dose curve; in most records, active means well fitted inhibition curve with a large enough effect; inconclusive means small, poorly fitted or top-dose-only effect; inactive means flat fitted curve, though single readings scatter. Where the call is inconclusive, the potency comes from a doubtful curve fit.
On the % scale 0 is the no-effect control and ±100 the full control effect; potency means the concentration at half of the fitted maximal effect; tags describe the fitted curve by direction and shape.

Assay: Cytotoxic Profiling in HEK 293 Cell Line of Diverse Libraries Using Quantitative High-Throughput Screening; further: nearly all actives have a fitted effect of over 60% in size
Settings: HEK 293 viability, ATP luminescence (CellTiter-Glo), 48-72 h; activity change, negative = cytotoxicity: at 115 µM (top of the series) unless noted; series mostly up to 115 µM
How it was run: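 ATP-coupled CellTiter-Glo luminescence served as viability read-out, recorded 10 min after reagent addition at room temperature. HEK 293 cells, 250 cells/well, had been incubated with pintool-transferred compound for 48 or 72 hr at 37 degree Celsius.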
With COc1ccc(C(=O)Nc2ccc(-c3noc([C@@H]4CCCN4Cc4ccc(S(C)(=O)=O)cc4)n3)cn2)cc1 the Potency was inconclusive: 39.8 µM [inhibitor, full curve]. In the case of O=C(NC1CCN(c2nccc(Nc3ccccc3F)n2)CC1)c1ccc(F)cc1, the Potency is reported as inconclusive: 50.1 µM [inhibitor, partial curve, poor fit]. For O=C(NCc1ccccn1)c1nc(-c2cccnc2)c2ccccn12, the Potency was inconclusive: 126 µM [inhibitor, single point]. For O=C(NC1CCCN(c2ccc3nnc(-c4ccccc4)n3n2)C1)c1ccc(Cl)cc1 (configuration not stated), the Potency was inconclusive: 39.8 µM [inhibitor, partial curve]. With COc1ccc(-c2cc(C(=O)NCC(C)C)c3c(C4CCNC4)nn(C)c3n2)cc1 (configuration not stated) the Potency was inconclusive: 50.1 µM [inhibitor, partial curve, poor fit]. In the case of COc1ccccc1-c1ccc(C(=O)N2CCC(C(=O)NCC(F)F)CC2)cc1, the Potency is reported as inconclusive: 35.5 µM [inhibitor, partial curve]. For COc1cccc(CCC(=O)N2CCCCC2c2nc(-c3ccncc3)n[nH]2)c1 (configuration not stated), the Potency was inconclusive: 35.5 µM [inhibitor, partial curve, poor fit]. In the case of O=C(Cn1ccn2nc3c(c2c1=O)CCCC3)Nc1ccc(C(F)(F)F)cc1, the Potency is reported as inconclusive: 50.1 µM [inhibitor, partial curve, poor fit]. In the case of CC1=C[C@@H](CNC(=O)CC(C)(C)CC(=O)O)[C@H](C(C)C)C[C@H]1Cc1nc2ccccc2[nH]1, the “activity change, negative = cytotoxicity” value is reported as inactive: -19.9%. With COc1cccc(CN2Cc3cc(NC(=O)c4ccc([N+](=O)[O-])cc4)ccc3OC(C)C2=O)c1OC (configuration not stated) the “activity change, negative = cytotoxicity” value was inactive: -29.1%. With Cc1cc(-c2cn(C)c(=O)n3cc(COc4ccccc4)nc23)ccn1 the Potency was inconclusive: 50.1 µM [inhibitor, partial curve, poor fit]. In the case of Cc1nn(-c2ccccc2)c2c1C(C)N(C1CCN(C(=O)C(C)C)CC1)C2=O (configuration not stated), the Potency is reported as inconclusive: 89.1 µM [inhibitor, single point]. For CS(=O)(=O)N1CC2(CCN(C3CCCCC3)CC2)Cc2ccccc21, the “activity change, negative = cytotoxicity” value was inactive: -18.1%. In the case of CCN1c2cc(C(=O)Nc3ccc(Cl)c(Cl)c3)ccc2C(=O)N2CCCCC21 (configuration not stated), the Potency is reported as inconclusive: 17.8 µM [inhibitor, full curve]. In the case of Cc1noc(C)c1S(=O)(=O)NCc1cccnc1N(C)Cc1ccccc1, the Potency is reported as inconclusive: 70.8 µM [inhibitor, partial curve, poor fit]. For Cc1ccc(-c2ncc(NC(=O)c3cccs3)cn2)cc1, the “activity change, negative = cytotoxicity” value was inactive: -0.251%. With COc1ccc(OC2CN(S(=O)(=O)c3c(C)noc3C)C2)cc1 the “activity change, negative = cytotoxicity” value was inactive: 0.572%.
